According to PubChem BioAssay AID1508624 (National Center for Advancing Translational Sciences (NCATS), 2021):
Out of some 48,000 compounds screened, about 120 (0.25%) were called active. Inconclusive results (about 4%) are left out. Calls follow the shape of the dose curve; as a rule, active = well fitted activation curve with a large enough effect; inconclusive = small, poorly fitted or top-dose-only effect, or another doubt; inactive = no such curve, though single readings can be large or run the other way. The list shows a part of the results.

test: Primary qHTS for Identification of Small Molecule Activators of Huntingtin-Antisense Promoter Activity; settings: HEK293 HTT-AS promoter firefly luciferase reporter, 24 h; series mostly up to 57.5 µM; activity change, positive = activation: at the top concentration; also: nearly all actives have a fitted effect of over 55% in size
In short: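 Firefly luciferase readout (Dual-Glo, 10 min RT) after 24 h, 37 °C compound exposure (final up to 57.5 uM) of HEK293 reporter cells cultured 24 h beforehand; PTC124 at 50 uM final as control inhibitor; activity scaled vehicle 0%, zero RLU -100%.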

Activity change, positive = activation, inactive:
Cc1ccccc1S(=O)(=O)Cc1ccc(C(=O)NC2CCCCC2)o1 -29.5%
CCOc1ccc(NS(=O)(=O)c2ccc3[nH]cc(C(=O)N(C)Cc4ccccc4)c(=O)c3c2)cc1 -10.5%
COc1ccc2c(c1)CC(NC(=O)Nc1c(C)cc(C)cc1C)CO2 (stereo unspecified) -0.807%
Cc1ccc(OC(=O)c2cc(-c3ccc4c(c3)OCCO4)on2)cc1C 10.5%
CCOc1cccc2cc(-c3nc4ccc(C(=O)O)cc4[nH]3)c(=O)oc12 -51.1%
CCOc1ccc(NC(=O)CSc2nnc3scc(-c4ccc(Cl)cc4)n23)cc1 12.4%
COc1ccc(C)cc1S(=O)(=O)N1CCN(c2cccc(Cl)c2)CC1 -31.4%
Cc1cccc(-n2c3nc(=O)[nH]c(=O)c-3cc3c(Cl)cccc32)c1C -42.5%
Cc1cccc(NC(=O)CSc2nc(-c3ccccc3)cn2-c2ccccc2)c1C -10.5%
Cc1ccc(C)c(-n2c(CCC(=O)O)ccc2-c2ccc(Cl)cc2)c1 -13.3%
COc1ccc(Nc2ncc(C(=O)N3CCN(c4cccc(Cl)c4)CC3)c3ccccc23)cc1 -38%
COCCn1ccc2c(OCC(=O)Nc3cccc(OC)c3)cccc2c1=O -18.9%
Cc1nc(C)c(-c2ccc(SCC(=O)Nc3ccc(C)c(F)c3)nn2)s1 -22%
CCc1ccc2ncc3c(-c4ccc(F)cc4)nn(CC(=O)NCc4ccccc4)c3c2c1 2.38%
CC(C)CC(C(=O)NCc1ccc(F)cc1)N1Cc2ccccc2C1=O (stereo unspecified) -7.12%
Cc1ccc(C(C)C)c(OCC(=O)Nc2ccc(C(=O)OC3CCCCC3)cc2)c1 -9.03%
CCOc1ccc(-c2nc(SCC(=O)Nc3ccc(C)c(C)c3)n3[nH]c(=O)cc3n2)cc1 -18.5%
CCc1nnc(SCc2nc(-c3ccc(OC)c(OC)c3)oc2C)c2cc3sc(C)cc3n12 -9.11%
Cc1ccc(/C=C/c2onc(C)c2S(=O)(=O)N2CCC(C(=O)NCc3ccc(C)o3)CC2)cc1 -14.9%
COc1cccc(CNC(=O)Cc2ccc(NC(=O)N3CCCCc4ccccc43)cc2)c1OC -18%
COc1cc(NC(=O)CCc2nc(-c3cccs3)no2)cc(OC)c1OC -24.4%
Cc1ccc2c(=O)cc(C(=O)Nc3cccc(Cl)c3C)oc2c1C 8.75% [at 11.5 µM, percent change from vehicle, -100% = no light]
COc1ccc(OCCCCn2c(-c3ccc(Cl)cc3)nc3ccccc3c2=O)cc1 -1.91%
CCCCCOC(=O)CSc1ncnc2c1sc1nc(N3CCOCC3)c3c(c12)CCCC3 -5.85%
CCC(=O)N1CCN(c2ccc(-n3c(=O)ccc4cnc5ccc(-c6cnc7ccccc7c6)cc5c43)cc2C(F)(F)F)CC1 -17.7%
Cc1cc(Nc2cccc(C)c2C)n2cnnc2n1 -10.1%
Cc1ccc(C(=O)CC2(O)C(=O)N(CCc3ccccc3)c3ccc(Cl)cc32)cc1 (stereo unspecified) -42.9%
Cn1c(=O)c2c(-c3ccccc3Cl)n(-c3cc(Cl)ccc3O)cc2n(C)c1=O -21.4%
CCC(=O)N1c2nc(-c3ccco3)nn2C2(CCCCC2)[C@@H]2CCCC[C@@H]21 -15.2%
CCS(=O)(=O)N1CCc2cc(C(=O)Nc3cccc(Cl)c3C)ccc21 23.8%
CCOc1c(Cl)cc(Cl)cc1CNCCSc1nnnn1C -12.6%
COc1ccc(N2CCN(C(CNC(=O)C(=O)NCCCN(C)C)c3cccnc3)CC2)cc1 (stereo unspecified) -2.27%
O=C(Nc1cc2c(cc1C(=O)c1ccccc1Cl)OCCO2)c1ccc(Br)cc1 -15.5%
Cc1nc2c(-c3ccccc3)c(C)nn2c(C)c1CCC(=O)NCc1ccccc1Cl -8.46%
Cn1cnc(-c2cc3nccc(Oc4ccc(NC(=S)NC(=O)Cc5ccccc5)cc4F)c3s2)c1 -21%
Cc1ccc(CSCc2ccc(C(=O)NCCc3ccc(Cl)cc3)o2)cc1 -35%
Cc1cc(C)cc(N2C(=O)CSC23C(=O)N(CC(=O)NCCc2ccccc2)c2ccccc23)c1 (stereo unspecified) -26%
CC(C)Oc1ccc(CNC(=O)CN2C(=O)CCc3cc(S(=O)(=O)N4CCCCC4)ccc32)cc1 -20%
O=c1[nH]c(=O)c2[nH]c(=O)[nH]c2[nH]1 -11.4% [at 11.5 µM, percent change from vehicle, -100% = no light]
CCOC(=O)C1=C(CS(=O)(=O)c2ccc(C)cc2)NC(=O)NC1c1ccc(C(C)C)cc1 (stereo unspecified) -53.5%
CN(C(=O)c1ccc2c(c1)N(Cc1cccc(Cl)c1)C(=O)c1ccccc1S2=O)C1CCCCC1 (stereo unspecified) -32.3%
COc1ccc(NC(=O)CCS(=O)(=O)c2cccc3nonc23)cc1Cl -22.5%
COc1ccccc1NCc1cccn1-c1nnc(N2CCOCC2)s1 4.69%
Cc1oc2ncn(C)c(=O)c2c1C(=O)NC(C)c1ccccc1 (stereo unspecified) -18.7%
O=C(CSC1=Nc2ccccc2N=C(c2ccc(F)cc2)C1)NCc1ccc(F)cc1 -25.5%
Cc1ccc(C)c(CN2C(=O)CSc3ccc(C(=O)NCc4ccc(F)cc4)cc32)c1 -6%
CCCNc1ncnc2onc(C)c12 -20.7%
Cc1ccc(C(=O)n2nc(C)c(S(=O)(=O)N3CCOCC3)c2C)cc1 -16.5%
CC(C)c1cnc2c(c1SCC(=O)Nc1ccccc1C(F)(F)F)c(=O)n(C)c(=O)n2C -8.66%
COc1ccc(-n2nc(C(=O)Nc3ccccc3OC)c3c4ccccc4n(C)c3c2=O)cc1Cl -12.3%
Cc1ccc(CSc2nc(-c3cccs3)ccc2C#N)cc1 -15.3%
COc1cccc(-c2nn(C)c3sc(C(=O)NCCc4ccc(Cl)cc4)cc23)c1 -13.5%
Cc1nnc(SCc2ccc(Cl)cc2)c2cc3occc3n12 -9.76%
Cc1cccc(N2CCN(c3cc(C)nc4c(-c5ccc(Cl)cc5)c(C)nn34)CC2C)c1 (stereo unspecified) -7.88%
Cc1ccc(-n2nnnc2CNC(=O)c2ccccc2S(C)(=O)=O)cc1C -6.01%
Nc1nc(OCc2ccccc2)c2[nH]cnc2n1 1.48%
FC(F)(F)c1cc(-c2ccccc2)nc2cc(-c3ccc(Br)cc3)nn12 -1.83%
COc1ccc(-c2cn3nc(N4CCCC(C(=O)Nc5ccc(C)c(C)c5)C4)sc3n2)cc1 (stereo unspecified) -6.81%
O=C(CCC(=O)OCC(=O)c1ccc(Cl)cc1)Nc1ccc(Oc2ccccc2)cc1 -8.31%
CCCn1cc(S(=O)(=O)c2cc(C)ccc2C)c(=O)c2cc(F)c(N3CCOCC3)cc21 -14.6%
CCc1ccc2occ(CC(=O)Nc3c(C(=O)Nc4ccc(C)cc4)oc4ccccc34)c2c1 1.57%
COC(=O)c1c(SCC(=O)Nc2cc(C)cc(C)c2)[nH]c2ccccc2c1=O -25.7%
COc1cccc(C2c3c(oc4ccc(C)cc4c3=O)C(=O)N2CCCN2CCOCC2)c1OC (stereo unspecified) -19.7%
O=C(Nc1cccc(NC(=O)c2ccc(Br)o2)c1)c1ccccc1 7.17%
CC1=C(CC(=O)O)c2cc(F)ccc2/C1=C\c1ccc(S(C)=O)cc1 (stereo unspecified) -4.08%
Cc1ccccc1-n1cc(-c2ccccc2)nc1SCC(=O)Nc1ccc(F)cc1 -20.5%
COc1ccc(-n2c(=O)c3c4c(sc3n(Cc3cc(C)ccc3C)c2=O)CN(C(C)=O)CC4)c(OC)c1 -46.7%
CCCn1c2ccccc2c2cnn(CC(=O)N3CCC(C(=O)OCC)CC3)c(=O)c21 -9.88%
Cc1ccc(CNc2nc3ccccc3n3c(C)nnc23)cc1 -11.3%
Cc1ccc(Sc2c(C)nn(C(=O)COc3ccc(F)cc3)c2C)cc1 4.81%
Cc1onc(-c2ccccc2)c1-c1ccc(S(N)(=O)=O)cc1 -13.5%
O=C(NCCN1CCN(c2ccccc2)CC1)Nc1ccccc1Br -8.12%
Cc1noc(Cn2c(=O)c3ccccc3n(CC(=O)Nc3cccc(Cl)c3C)c2=O)n1 -13.2%
COc1ccc(CCN(C)CCCC(C#N)(c2ccc(OC)c(OC)c2)C(C)C)cc1OC (stereo unspecified)
CC(=O)N1CCCc2cc(S(=O)(=O)N(C)CC(=O)Nc3ccc(C)cc3C)ccc21 29.1%
CC[N+]1(CC)CCC(=C(c2ccccc2)c2ccccc2)C1C (stereo unspecified) -7.3%
N#Cc1nc(/C=C/c2ccc(F)cc2)oc1N1CCN(c2ccccc2)CC1 -8.87%
COc1ccc(Cn2c(CNS(=O)(=O)c3ccc4c(c3)CCCC4)nc3cccnc32)cc1 -20.7%
O=C(c1cnc(N2CCCCC2)c2ccccc12)N1CCN(c2ccccc2F)CC1 -24.9%
CCCSc1oc(-c2cccs2)nc1S(=O)(=O)c1ccc(Cl)cc1 -12.3%
Cc1ccc2c(c1)c1c(c(=O)n(Cc3ccccc3)c(=O)n1Cc1cccc(C(F)(F)F)c1)n2C -11.7%
c1csc(C2=NC(c3ccncc3)=Nc3ccccc3N2)c1 -11.8%
O=C(CSC1=Nc2ccccc2N=C(c2ccc(F)cc2)C1)NCc1ccccc1 -27.7%
CC(=O)N1CCc2cc(CNS(=O)(=O)c3ccc(Br)s3)ccc21 -4.72%
CCOc1ccc(C(=O)NCCc2sc3nc(-c4ccc(Cl)cc4)nn3c2C)cc1OCC -15.3%
CC1CCCN(Cc2cn3c(-c4cccc(Br)c4)nnc3s2)C1 (stereo unspecified) -9.37%
O=C(NCCc1ccc(Cl)cc1)c1ccc(Cn2c(=O)c3cccn3c3cccnc32)cc1 -24.9%
CCCc1cc(=O)[nH]c(=S)[nH]1
Cc1ccc(N2CC(NC(=O)c3ccc(S(=O)(=O)N4CCOCC4)cc3)CC2=O)cc1C (stereo unspecified) -15.4%
Cc1cccc(CNC(=O)C2CCN(c3nnc(-n4c(C)ccc4C)s3)CC2)c1 -1.43%
Cc1cccc(-c2noc(CN(C(=O)c3ccccc3Cl)C(C)C)n2)c1 -20.4%
COc1ccc(CCNC(=O)CCCn2c(=O)c3ccccc3n(Cc3ccc(F)cc3Cl)c2=O)cc1OC -5.37%
COc1ccccc1NC(=O)c1c(NCc2ccc(C)o2)sc2c1CCC(C)C2 (stereo unspecified) -19.2%
COCCc1nn2c(=O)cc(COC(=O)COc3ccc(F)cc3)nc2s1 -10.4%
COc1ccc(-c2cn3c(n2)sc2cc(C(=O)NCCCN4CCCCCC4)ccc23)cc1 -3.19%
CCCOC(=O)c1c(NC(=O)C2c3ccccc3Oc3ccccc32)sc2c1CCC(C)C2 (stereo unspecified) -13.2% [at 11.5 µM, percent change from vehicle, -100% = no light]
